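Interpolation was linear, between the two tested concentrations surrounding the appropriate level; five concentrations were tested over 48 hours in 96-well plates. GI50 is the concentration that inhibits growth by half.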 Activity calls are given as the source filed them. Cut-off read from the data, not from the text of the source: active = GI50 up to about 1.1 µM and inactive = higher.
system: NCI-H322M; test: DTP human tumour cell line panel, 48 h

| Structure (SMILES) | GI50 |
| --- | --- |
| CCN(CC)CCN1c2ccccc2Sc2ccc3ccccc3c21 | inactive: 10.5 µM |
| c1ccc(NN(Cc2cnccn2)c2ccccc2)cc1 | inactive: 92.3 µM |
| N#CC(c1ccc(O)cc1)N1CCN(C(C#N)c2ccc(O)cc2)CC1 (stereo not drawn) | inactive: > 56.5 µM |
| O=C(O)[C@@H](NS(=O)(=O)c1ccc([N+](=O)[O-])cc1)c1ccccc1 | inactive: > 100 µM |
| CC1=C(C)C(=O)C2=C(OCCCO2)C1=O | inactive: > 100 µM |
| CCOC(=O)N(C)C(=C(F)F)C(F)(F)F | inactive: 50.2 µM |
| O=c1/c(=C/c2ccccc2[N+](=O)[O-])sc2nc3ccccc3n12 | inactive: 44.4 µM |
| CCOC(=O)CN1CC(C2=C(O)CN(CC(=O)OCC)C2=O)=CC1=O | inactive: > 100 µM |
| COc1cc2cc3c4c(cc(OC)c(OC)c4c2cc1OC)CCN3C(=O)N(C)C | inactive: > 100 µM |
| N#Cc1[nH]c(=O)n(-c2cccc3ccccc23)c1N | inactive: > 10 µM |
| CC(=O)c1c(-c2ccc(Cl)cc2)c(C#N)c(=S)n(C2OC(CO)C(O)C(O)C2O)c1-c1ccccc1 (stereo not drawn) | inactive: > 100 µM |
| CCOC(=O)/C(=C\NC(=S)Nc1ccc(OCC)cc1)C(=O)c1ccccc1 | inactive: > 100 µM |
| CC(=O)c1cc2c(Br)cccc2oc1=O | inactive: > 100 µM |
| Cn1nnc2c(C(N)=S)ncn2c1=O | inactive: > 100 µM |
| Cc1c(/C=N\NC(=S)N(C)CCN(C)C(=S)N/N=C\c2c(C)n(C)n(-c3ccccc3)c2=O)c(=O)n(-c2ccccc2)n1C | inactive: > 100 µM |
| Cc1ccnc2c1c(=O)c1ccccc1n2C | inactive: 46.2 µM |
| N#C/C(=C\c1cc(OCc2ccccc2)c(OCc2ccccc2)cn1)C(N)=O | inactive: > 100 µM |
| COC(=O)c1sc2ncc3c(c2c1N)CCCCCC3 | inactive: > 100 µM |
| Cn1cc2ccccc2c1-c1nc(F)nc(Oc2ccc3c(c2)CC[C@@H]2C3CC[C@@]3(C)C2CC[C@@H]3O)n1 (stereo partly drawn) | inactive: 35.6 µM |
| COC(=O)c1c2c(cc3c1CC1(Cc4cc5c(c(C=O)c4C1)CCC5)C3)CCC2 (stereo not drawn) | inactive: 95.5 µM |
| O=c1[nH]c2cc([N+](=O)[O-])c(Nc3c4ccccc4nc4ccccc34)c([N+](=O)[O-])c2[nH]1 | active: 1.03 µM |
| CC(C)(C)C1=CC(=C2C(=O)C(=O)c3ccccc3C2=O)C=C(C(C)(C)C)C1=O | inactive: > 100 µM |
| N#CC(C(=O)/C(=N/NC(=O)c1ccccc1O)C(C#N)c1ccccc1)c1ccccc1 (stereo not drawn) | inactive: > 100 µM |
| COC(=O)C(Cc1nc2ccc(Cl)cc2nc1O)/C(=N\N)C(=O)Nc1cc(C)c(Cl)cc1S(=O)(=O)O (stereo not drawn) | inactive: > 100 µM |

| Structure (SMILES) | GI50 |
| --- | --- |
| O=C1CCc2cc([N+](=O)[O-])ccc2O1 | inactive: > 100 µM |
| CCOC(=O)/C(C(=S)NC)=C(/N)N1CCCC1 | inactive: > 100 µM |
| CCOC(=O)C#Cc1cccc(C#CC(=O)OCC)c1 | inactive: 13.1 µM |
| CCOC(=O)C(CCSC)(CCSC)C(=O)OCC | inactive: > 100 µM |
| COc1c(-c2ccccc2)nc2ccc(Oc3ccccc3)nn12 | inactive: > 100 µM |
| CN1CC2=C(N=C(S)NC2c2ccc(Cl)cc2)/C(=C/c2ccc(Cl)cc2)C1 (stereo not drawn) | inactive: 17.2 µM |
| COC(=O)C(=NNc1ccccc1[N+](=O)[O-])C(=O)OC | inactive: > 100 µM |
| Clc1ccc(-c2ccc(-c3nnc(COc4ccc(OCc5nnc(-c6ccc(-c7ccc(Cl)cc7Cl)o6)o5)c(Cl)c4)o3)o2)c(Cl)c1 | inactive: > 100 µM |
| COc1ccc(-c2c(C3=NCCCN3)nnn2-c2ccc([N+](=O)[O-])cc2)cc1 | inactive: > 100 µM |
| NC1=NN(c2ccccc2)C(=O)C1C(=O)C(=O)Nc1ccc(Cl)c(Cl)c1 (stereo not drawn) | inactive: > 100 µM |
| C=CCCCCCCCCCOC1C=CC(OC(C)=O)C(COC(C)=O)O1 (stereo not drawn) | inactive: > 100 µM |
| Clc1ccc(Cl)c(NNc2cc(Cl)ccc2Cl)c1 | inactive: > 10 µM |
| Cc1cccc2c(=O)c3c(O)cc(O)cc3n(C)c12 | inactive: > 100 µM |
| Cc1cc(=O)[nH]c(-n2[nH]c3c(c2=O)CCCC3)n1 | inactive: > 100 µM |
| O=C1CSC(=S)N1c1ccc(F)cc1F | inactive: 62.4 µM |
| N=C(N)N/N=C(/c1nc2ccc([N+](=O)[O-])cc2[nH]c1=O)C(O)c1ccc([N+](=O)[O-])cc1 (stereo not drawn) | inactive: 80.9 µM |
| S=C1Nc2ccccc2SC1c1ccccc1 (stereo not drawn) | inactive: > 100 µM |
| O=C1CC(c2ccc(Cl)cc2)=Nc2ccccc2N1 | inactive: 44.2 µM |
| [O-][S+]1c2ccccc2N=C(c2ccc3ccccc3c2)CC1c1ccccc1 (stereo not drawn) | inactive: 48.1 µM |
| COc1ccc(/N=C(C)/C(C)=N/c2ccc(OC)cc2)cc1 | inactive: > 100 µM |
| O=C(Nc1ccccc1)c1cc(S(=O)(=O)NC2=Nc3ccc(Cl)cc3C(c3ccccc3)N2)c(SSc2cc(Cl)c(C(=O)Nc3ccccc3)cc2S(=O)(=O)NC2=Nc3ccc(Cl)cc3C(c3ccccc3)N2)cc1Cl (stereo not drawn) | inactive: > 100 µM |
| COc1ccc(C[C@H]2COC(=O)[C@@H]2Cc2ccc(Br)cc2)cc1OC | inactive: 62.8 µM |
| NC(=O)c1nnc2ccc(F)cc2c1N | inactive: > 100 µM |
| CC(C)(C)N/N=C(\C(=O)Nc1ccc([N+](=O)[O-])cc1[N+](=O)[O-])c1nc2ccc([N+](=O)[O-])cc2nc1O | inactive: > 100 µM |

| Structure (SMILES) | GI50 |
| --- | --- |
| Cc1cc(Cl)ccc1NC(=O)C(=O)Cc1nc2ccc(C(=O)c3ccccc3)cc2nc1O | inactive: > 100 µM |
| O=C(N/N=C/c1c(-c2ccccc2)no[n+]1[O-])N1CCOCC1 | inactive: > 100 µM |
| CCOc1ccc(C(=O)/C=C2/Nc3ccccc3N/C2=C/C(=O)c2ccc(OCC)cc2)cc1 | inactive: > 100 µM |
| Cc1cccc(C)c1NC(=O)CCC(=O)NNc1nnc(C)n1N | inactive: > 100 µM |
| C=CCN1C(=O)/C(=C\c2cc(C(C)(C)C)c(O)c(C(C)(C)C)c2)NC1=S | inactive: 22.7 µM |
| Cc1ccc2oc3c(c(Br)c(Br)n3C)c(=O)c2c1 | inactive: 23 µM |
| Cc1ccc(S(=O)(=O)N2CCSCCN(S(=O)(=O)c3ccc(C)cc3)CCN(S(=O)(=O)c3ccc(C)cc3)CC2)cc1 | inactive: > 100 µM |
| COc1nc2c(c(=O)n1C)N[C@H]1[C@H](OC(C)=O)[C@@H](OC(C)=O)CO[C@H]1N2 | inactive: > 100 µM |
| COc1ccc(C2C(C(=O)O)=C(COC(C)=O)Oc3cc4c(cc32)OCO4)cc1 (stereo not drawn) | inactive: > 100 µM |
| COC(=O)c1ccccc1C1CN=NC12Cc1ccccc1C2=O (stereo not drawn) | inactive: > 100 µM |
| CC(=O)OCC1OC(c2nnc(C)o2)=CC(OC(C)=O)C1OC(C)=O (stereo not drawn) | inactive: > 100 µM |
| COc1ccc(C2c3cc4c(cc3OC(NNc3ccccc3)C2C)OCO4)cc1 (stereo not drawn) | inactive: 6.78 µM |
| O=C1OC(c2ccc(Cl)cc2)(c2ccc(Cl)cc2)c2c1ccc1ccccc21 | inactive: > 100 µM |
| CCCCCCCCCN1CCC(=O)C(C(=O)OC)C1 (stereo not drawn) | inactive: 31.8 µM |
| Cc1ccc(OCC2OC(n3cnc4c(Cl)nc(Nc5cc(Cl)cc(Cl)c5)nc43)CC2Oc2ccc(C)cc2)cc1 (stereo not drawn) | inactive: > 100 µM |
| CCOC(=O)/C=C/CC(C)(C)CCOC(C)=O | inactive: > 10 µM |
| COCC1OCCN1C (stereo not drawn) | inactive: > 100 µM |
| CC1OC(OC2CCCc3c(O)c4c(c(O)c32)C(=O)c2ccccc2C4=O)CC(N)C1O (stereo not drawn) | active: 1.05 µM |
| CCOC(=O)Cn1c(C)nc2nn(Cc3ccccc3)cc2c1=O | inactive: > 100 µM |
| COC(=O)C1=C(C(=O)OC)C2C(C)=CC(C)=CN2C(C#N)=C(SC)S1 (stereo not drawn) | inactive: 57.9 µM |
| CC(=O)OCc1nnn2c1CCC2 | inactive: > 100 µM |
| COc1ccc(/C=C/C(=N/NC(=O)N/N=C(/C=C/c2ccc(OC)cc2)C(C)C)C(C)C)cc1 | inactive: > 100 µM |
| O=C1OC(c2ccccc2)=N/C1=C\c1cccc(F)c1 | inactive: > 100 µM |
| COC(=O)c1cnn2c1ccc1ccccc12 | inactive: > 100 µM |

| Structure (SMILES) | GI50 |
| --- | --- |
| CCOC(=O)C1Oc2ccc([N+](=O)[O-])c3c2C1(O)CCC3 (stereo not drawn) | inactive: > 100 µM |
| CCN(CC)C(=O)c1cccc2c(OC)ccc(OC)c12 | inactive: > 100 µM |
| O=C1CSCC(=O)Nc2ccccc2N1 | inactive: > 100 µM |
| CCCCCCCC(CC(=O)NC(CO)C(=O)NC(CO)CC(C)C)OC(=O)CC(CCCCCCC)OC(=O)CC(CCCCCCC)OC1OC(C)C(O)C(OC2OC(C)C(O)C(O)C2O)C1O (stereo not drawn) | inactive: 12.3 µM |
| COC(=O)C1C2CCCN2OC1(C)CO (stereo not drawn) | inactive: > 100 µM |
| Cc1ccc(/C=C2\N=C(N3CCCCC3)NC2=O)cc1 | inactive: > 100 µM |
| CC(C)(C)[Si](C)(C)O/N=C\c1ccc(O[Si](C)(C)C(C)(C)C)cc1 | inactive: 69 µM |
| O=[N+]([O-])c1ccc(C2=Nn3cnnc3SC2)o1 | inactive: 20 µM |
| Cc1cc2c(c(O)c1-c1c(C)cc(O)c3c1C(=O)C=CC3=O)C(=O)C=CC2=O | inactive: 17.2 µM |
| O=c1c(Br)c(-c2ccccc2)[s+]([O-])c2ccccc12 (stereo not drawn) | inactive: 16.7 µM |
| O=C1/C(=C/c2ccc(Cl)cc2)N=C(c2ccccc2)N1c1nc2ccccc2s1 | inactive: > 100 µM |
| O=c1c2cc(S(=O)(=O)Nc3c(Cl)cccc3Cl)ccc2ncn1NS(=O)(=O)c1ccc2ccccc2c1 | inactive: > 62.5 µM |
| Cc1c(/N=C\c2ccc(N(CCC#N)CCC#N)cc2)c(=O)n(-c2ccccc2)n1C | inactive: > 52.2 µM |
| COc1ccc(NC(=O)CC(=O)N/N=C/c2ccc(N(CCC#N)S(C)(=O)=O)cc2)cc1 | inactive: > 100 µM |
| NCCc1ccc(S(=O)(=O)O)cc1[N+](=O)[O-] | inactive: > 100 µM |
| NC(N)=NC(P(=O)(O)O)P(=O)(O)O | inactive: > 100 µM |
| C=C(C)CCC(=O)[C@](C)(O)[C@H]1[C@H](O)C[C@@]2(C)[C@@H]3CCc4c(cc(OC5OC(CO)C(O)C(O)C5O)c(O)c4C)C3(C)C(=O)C[C@]12C (stereo partly drawn) | inactive: > 100 µM |
| O=C1O[B-](c2ccccc2)(c2ccccc2)[NH2+]C1CS (stereo not drawn) | inactive: > 100 µM |
| CC1C=C[C@H](Sc2ccccc2)CC[C@@]1(C)O (stereo partly drawn) | inactive: > 100 µM |
| O=C(CCCn1ccnc1[N+](=O)[O-])NCCn1cncc1[N+](=O)[O-] | inactive: > 100 µM |
| Oc1cc(Cc2ccccc2)c(Cc2ccccc2)cc1O | inactive: > 10 µM |
